The data set concerns SIVsab (simian immunodeficiency virus of sabaeus monkeys), single-cycle GFP reporter, in CRFK cells. Description: enrichment among uninfected cells over input (fold); higher = stronger restriction. On the procedure:
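Pools of CRFK cells expressing variants of the TRIM5α v1 loop were challenged with the single-cycle reporter, sorted by GFP and sequenced; mean of two replicates.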

[1] abbreviates: library: human / rhesus combinations.

Among the data in the supplement of paper PMC12230231 are enrichment values, retold here.

± gives the standard deviation of the averaged measurements. Restriction of a single-cycle SIVsab GFP reporter by TRIM5α v1-loop variants in CRFK cells. Human variants: read share among cells still uninfected after two challenges over input, higher = gained restriction. Rhesus variants: share among infected cells over input, higher = lost restriction. Reporter dose not given per row. No active / inactive call per row; the paper calls a change when both replicates lie above its controls (mean + 2 SD of stop or wild-type variants, or the top frameshift score). Residues outside the varied loop are taken from Swiss-Prot. The paper reads the human single-substitution scores as noise; they and the rhesus combinations repeat poorly (rank correlation 0.3 to 0.4), indel scores repeat only for the top variants, rhesus substitutions well (0.9).

In turn, “MASGILVNVKEEVTCPICLELLTQPLSLDCGHSFCQACLTANHKKSMLDKGESSCPVCRISYQPENIRPNRHVANIVEKLREVKLSPEGQKVDHCARHGEKLLLFCQEDGKVICWLCERSQEHRGHHTFLTEEVAREYQVKLQAALEMLRQKQQEAEELEADIREEKASWKTQIQYDKTNVLADFEQLRDILDWEESNELQNLEKEEEDILKSLTNSETEMVQQTQSLRELISDLEHRLQGSVMELLQGVDGVIKRTENVTLKKPETFPKNQRRVFRAPDLKGMLEVFRELTDVRRYWVDVTVAPNNISCAVISEDKRQVSSPKPQIIYGARGTRFNYCTGILGSQSITSGKHYWEVDVSKKTAWILGVCAGFQPDAMCNIEKNENYQPKYGYWVIGLEEGVKCSAFQDSSFHTPSVPFIVPLSVIICPDRVGVFLDYEACTVSFFNITNHGFLIYKFSHCSFSQPVFPYLNPRKCGVPMTLCSPSS [human TRIM5α, 6-codon deletion at 336]” returned an enrichment (library: insertions and deletions) of 0.525 ± 0.0057.
As to “MASGILVNVKEEVTCPICLELLTQPLSLDCGHSFCQACLTANHKKSMLDKGESSCPVCRISYQPENIRPNRHVANIVEKLREVKLSPEGQKVDHCARHGEKLLLFCQEDGKVICWLCERSQEHRGHHTFLTEEVAREYQVKLQAALEMLRQKQQEAEELEADIREEKASWKTQIQYDKTNVLADFEQLRDILDWEESNELQNLEKEEEDILKSLTNSETEMVQQTQSLRELISDLEHRLQGSVMELLQGVDGVIKRTENVTLKKPETFPKNQRRVFRAPDLKGMLEVFRELTDVRRYWVDVTVAPNNISCAVISEDKRQVSSPKPQIIYGARGTRFPSFTNFNYCTGILGSQSITSGKHYWEVDVSKKTAWILGVCAGFQPDAMCNIEKNENYQPKYGYWVIGLEEGVKCSAFQDSSFHTPSVPFIVPLSVIICPDRVGVFLDYEACTVSFFNITNHGFLIYKFSHCSFSQPVFPYLNPRKCGVPMTLCSPSS [human TRIM5α, 330-340 = GARGTRFPSFT]”, the enrichment under setting [1] came to 1.29 ± 1.8.
On to “MASGILVNVKEEVTCPICLELLTQPLSLDCGHSFCQACLTANHKKSMLDKGESSCPVCRISYQPENIRPNRHVANIVEKLREVKLSPEGQKVDHCARHGEKLLLFCQEDGKVICWLCERSQEHRGHHTFLTEEVAREYQVKLQAALEMLRQKQQEAEELEADIREEKASWKTQIQYDKTNVLADFEQLRDILDWEESNELQNLEKEEEDILKSLTNSETEMVQQTQSLRELISDLEHRLQGSVMELLQGVDGVIKRTENVTLKKPETFPKNQRRVFRAPDLKGMLEVFRELTDVRRYWVDVTVAPNNISCAVISEDKRQVSSPKPQIIYGARGTRFPSFVNFNYCTGILGSQSITSGKHYWEVDVSKKTAWILGVCAGFQPDAMCNIEKNENYQPKYGYWVIGLEEGVKCSAFQDSSFHTPSVPFIVPLSVIICPDRVGVFLDYEACTVSFFNITNHGFLIYKFSHCSFSQPVFPYLNPRKCGVPMTLCSPSS [human TRIM5α, 330-340 = GARGTRFPSFV]”, for which the enrichment under setting [1] turned out to be 0.00146 ± 0.00053.
Consider “MASGILVNVKEEVTCPICLELLTQPLSLDCGHSFCQACLTANHKKSMLDKGESSCPVCRISYQPENIRPNRHVANIVEKLREVKLSPEGQKVDHCARHGEKLLLFCQEDGKVICWLCERSQEHRGHHTFLTEEVAREYQVKLQAALEMLRQKQQEAEELEADIREEKASWKTQIQYDKTNVLADFEQLRDILDWEESNELQNLEKEEEDILKSLTNSETEMVQQTQSLRELISDLEHRLQGSVMELLQGVDGVIKRTENVTLKKPETFPKNQRRVFRAPDLKGMLEVFRELTDVRRYWVDVTVAPNNISCAVISEDKRQVSSPKPQIIYGARGTRFPSLTNFNYCTGILGSQSITSGKHYWEVDVSKKTAWILGVCAGFQPDAMCNIEKNENYQPKYGYWVIGLEEGVKCSAFQDSSFHTPSVPFIVPLSVIICPDRVGVFLDYEACTVSFFNITNHGFLIYKFSHCSFSQPVFPYLNPRKCGVPMTLCSPSS [human TRIM5α, 330-340 = GARGTRFPSLT]”, for which the enrichment under setting [1] was determined as 0.0839 ± 0.1.
